Assay: immunofluorescence colocalisation with Na/K ATPase, Huh7
Settings: glycan lost; control: GPR31-WT

| Protein | localisation_or_trafficking |
| --- | --- |
| GPR31: N5Q (protein) parent chain: MPFPNCSAPSTVVATAVGVLLGLECGLGLLGNAVALWTFLFRVRVWKPYAVYLLNLALADLLLAACLPFLAAFYLSLQAWHLGRVGCWALHFLLDLSRSVGMAFLAAVALDRYLRVVHPRLKVNLLSPQAALGVSGLVWLLMVALTCPGLLISEAAQNSTRCHSFYSRADGSFSIIWQEALSCLQFVLPFGLIVFCNAGIIRALQKRLREPEKQPKLQRAQALVTLVVVLFALCFLPCFLARVLMHIFQNLGSCRALCAVAHTSDVTGSLTYLHSVLNPVVYCFSSPTFRSSYRRVFHTLRGKGQAAEPPDFNPRDSYS | decreases |
| GPR31: N158Q (protein) parent chain: MPFPNCSAPSTVVATAVGVLLGLECGLGLLGNAVALWTFLFRVRVWKPYAVYLLNLALADLLLAACLPFLAAFYLSLQAWHLGRVGCWALHFLLDLSRSVGMAFLAAVALDRYLRVVHPRLKVNLLSPQAALGVSGLVWLLMVALTCPGLLISEAAQNSTRCHSFYSRADGSFSIIWQEALSCLQFVLPFGLIVFCNAGIIRALQKRLREPEKQPKLQRAQALVTLVVVLFALCFLPCFLARVLMHIFQNLGSCRALCAVAHTSDVTGSLTYLHSVLNPVVYCFSSPTFRSSYRRVFHTLRGKGQAAEPPDFNPRDSYS | no change |
| GPR31: DNQ (protein) parent chain: MPFPNCSAPSTVVATAVGVLLGLECGLGLLGNAVALWTFLFRVRVWKPYAVYLLNLALADLLLAACLPFLAAFYLSLQAWHLGRVGCWALHFLLDLSRSVGMAFLAAVALDRYLRVVHPRLKVNLLSPQAALGVSGLVWLLMVALTCPGLLISEAAQNSTRCHSFYSRADGSFSIIWQEALSCLQFVLPFGLIVFCNAGIIRALQKRLREPEKQPKLQRAQALVTLVVVLFALCFLPCFLARVLMHIFQNLGSCRALCAVAHTSDVTGSLTYLHSVLNPVVYCFSSPTFRSSYRRVFHTLRGKGQAAEPPDFNPRDSYS | decreases |
